Some of the results follow. Sequences were assembled here from the parent chain. Values near 0.05 are background.
B1: TEV protease; numbered along this chain (parent)
chain: MGESLFKGPRDYNPISSSICHLTNESDGHTTSLYGIGFGPFIITNKHLFRRNNGTLVVQSLHGVFKVKDTTTLQQHLVDGRDMIIIRMPKDFPPFPQKLKFREPQREERICLVTTNFQTKSMSSMVSDTSCTFPSGDGIFWKHWIQTKDGQCGSPLVSTRDGFIVGIHSASNFTNTNNYFTSVPKNFMELLTNQEAQQWVSGWRLNADSVLWGGHKVFMVKPEEPFQPVKEATQL

Variants of: B1
Test: raw area under fraction-flipped curve 0-4 h after induction (AUC4h, not background-subtracted), DNA-recorder readout of cleavage of the substrate (dimensionless); higher = more cleavage of the substrate by the protease variant
Conditions: temperature: 34 °C; time window: 0-4 h after rhamnose induction
Method: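 In vivo DNA recorder in E. coli TOP10(DE3) ΔrhaA at 34 °C. Each TEVp single-site mutant (parent TEVp 0) is paired with a single-site variant of the 7-mer TEVs (canonical ENLYFQ|S). The substrate sits between flexible linkers in a Bxb1-sfGFP-TEVs-SsrA fusion, so cleavage stabilises Bxb1 and speeds flipping of a recombination array, read by NGS. The value is the raw area under the fraction-flipped curve over 0-4 h after rhamnose induction (AUC4h), with ≥20 reads per time point. It is not background-subtracted; inactive controls average about 0.047.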
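Further: Bxb1 expression induced with 0.2% (w/v) L-rhamnose at OD600 near 0.5, cultures sampled hourly, flipped fraction per protease–substrate barcode pair counted by paired-end Illumina sequencing.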

Row | Variant | area with substrate ENLYAQS | area with substrate ENLYCQS | area with substrate ENLYGQS | area with substrate ENLYHQS | area with substrate ENLYKQS | area with substrate ENLYMQS | area with substrate ENLYPQS | area with substrate ENLYRQS | area with substrate ENLYSQS | area with substrate ENLYTQS | area with substrate ENLYVQS | area with substrate ENLYYQS | area with substrate ENLYDQS | area with substrate ENLYEQS | area with substrate ENLYIQS | area with substrate ENLYLQS | area with substrate ENLYNQS | area with substrate ENLYWQS | area with substrate ENLYQQS
1 | P93S | 0.0684 | 0.0841 | 0.0715 | 0.0701 | 0.0603 | 0.0657 | 0.0615 | 0.0566 | 0.0832 | 0.0458 | 0.115 | 0.0574 |  |  |  |  |  |  | 
2 | R106D | 0.0813 | 0.116 | 0.0609 | 0.0797 | 0.0656 | 0.0872 | 0.0768 | 0.0658 | 0.0805 | 0.0987 | 0.115 | 0.0772 | 0.0549 | 0.0629 | 0.118 | 0.0864 | 0.0669 | 0.0684 | 
3 | L48W | 0.0617 |  | 0.0553 | 0.0596 | 0.0503 | 0.0303 | 0.0553 | 0.0613 | 0.054 |  | 0.0579 |  | 0.0662 | 0.0597 | 0.0524 |  | 0.0635 | 0.0661 | 0.0593
4 | L48A | 0.0535 | 0.0752 | 0.0659 | 0.0703 | 0.0612 | 0.0606 | 0.0623 |  | 0.0616 | 0.0604 | 0.0695 | 0.068 | 0.0487 | 0.068 | 0.0674 | 0.0635 | 0.0684 | 0.0687 | 0.0638
5 | L48V | 0.07 | 0.0715 | 0.0553 | 0.0646 | 0.0711 | 0.071 | 0.0599 | 0.0717 | 0.0514 | 0.0583 | 0.0761 |  | 0.0613 | 0.0605 | 0.0748 | 0.067 | 0.0629 | 0.0768 | 
6 | L48R | 0.0555 | 0.0544 | 0.056 | 0.0573 | 0.0637 | 0.0753 | 0.059 | 0.0595 |  | 0.064 | 0.0608 | 0.0651 | 0.0694 | 0.0715 | 0.0596 | 0.0573 | 0.0565 | 0.0696 | 0.0599
7 | L48M | 0.0522 |  |  | 0.0589 | 0.0648 | 0.0807 | 0.0081 |  | 0.0777 |  | 0.0626 |  | 0.066 | 0.0645 | 0.0722 |  | 0.0489 | 0.0785 | 0.0567
8 | L48G | 0.0569 |  | 0.0639 | 0.0514 | 0.0628 | 0.0668 | 0.0559 | 0.0627 |  | 0.0696 |  | 0.0547 | 0.0599 | 0.0659 | 0.0635 |  | 0.0579 | 0.0664 | 0.0852
9 | K46S | 0.0716 | 0.0866 |  | 0.0673 | 0.0654 | 0.0943 | 0.0628 | 0.0642 | 0.0714 | 0.0689 | 0.105 | 0.057 | 0.0539 | 0.0652 | 0.11 |  | 0.0652 | 0.0799 | 0.0583
10 | G54I | 0.0591 |  | 0.0464 | 0.0596 | 0.0467 | 0.0644 | 0.0574 | 0.0586 | 0.059 | 0.0651 |  |  | 0.054 | 0.0576 | 0.0671 | 0.0546 | 0.0605 |  | 0.0443
11 | Q75P | 0.067 |  | 0.066 | 0.0499 | 0.0662 | 0.057 | 0.0583 | 0.0559 | 0.0544 |  | 0.0593 | 0.0549 | 0.0638 | 0.0582 | 0.0487 | 0.0557 | 0.0643 | 0.0633 | 0.0579
12 | L61G | 0.0726 |  | 0.0708 | 0.0735 | 0.0519 | 0.0866 | 0.0702 | 0.0603 | 0.0772 | 0.0791 | 0.114 |  | 0.0609 | 0.0778 | 0.12 |  |  |  | 0.0681
13 | L112H | 0.0623 | 0.064 |  | 0.0954 | 0.0636 | 0.0542 | 0.0598 | 0.0641 | 0.088 |  | 0.0701 | 0.0633 | 0.056 | 0.0615 | 0.0876 | 0.0548 | 0.0591 | 0.0683 | 
14 | L112F | 0.0836 | 0.0736 | 0.063 | 0.0687 | 0.071 | 0.075 |  | 0.0425 | 0.0888 | 0.0631 | 0.0836 |  | 0.0479 | 0.0672 | 0.0907 |  | 0.0502 | 0.0601 | 0.0659
15 | L112W | 0.076 |  | 0.0537 | 0.0553 |  | 0.0677 | 0.0643 | 0.0612 | 0.0721 | 0.069 | 0.0798 |  |  | 0.0613 | 0.0647 | 0.0503 | 0.0678 | 0.0468 | 0.0608
16 | L112Q | 0.07 |  | 0.0819 | 0.0627 | 0.0634 | 0.0553 | 0.0572 | 0.0543 | 0.0737 | 0.0542 | 0.0799 | 0.068 |  | 0.0696 | 0.0726 |  | 0.0681 | 0.053 | 
17 | L112Y | 0.0551 | 0.0592 | 0.0564 | 0.0688 | 0.0393 | 0.0577 |  |  | 0.071 | 0.0947 | 0.0404 |  | 0.0681 | 0.0601 | 0.0624 |  | 0.0527 | 0.0606 | 0.0475
18 | R81T | 0.0748 |  | 0.0669 | 0.0639 | 0.0595 | 0.0685 | 0.0606 | 0.0743 | 0.055 |  | 0.0681 | 0.0597 | 0.0696 | 0.0674 | 0.0665 |  | 0.0627 | 0.0586 | 
19 | R81N | 0.0865 |  | 0.058 | 0.0566 | 0.0662 |  | 0.0669 | 0.058 |  | 0.0632 | 0.0657 | 0.063 | 0.0539 | 0.0572 | 0.0769 |  | 0.0608 |  | 0.0653
20 | V64C | 0.0579 | 0.099 |  | 0.0888 | 0.0719 | 0.072 | 0.0917 | 0.0664 | 0.0561 | 0.0812 | 0.132 | 0.067 | 0.0731 | 0.0701 |  | 0.0848 | 0.0725 | 0.0738 | 0.0707
21 | P104F | 0.0795 |  | 0.0488 | 0.0476 | 0.0608 |  |  |  | 0.0588 |  | 0.053 |  | 0.0532 |  |  |  | 0.0566 | 0.0516 | 0.0539
22 | P104D | 0.061 | 0.0601 | 0.0559 | 0.0564 | 0.0477 | 0.0428 | 0.0599 | 0.0563 | 0.0548 | 0.0426 | 0.0604 | 0.0385 |  |  | 0.0499 | 0.0305 |  |  | 0.0419
23 | D128A | 0.0893 |  | 0.0868 | 0.0665 | 0.0543 | 0.101 | 0.0816 | 0.0632 |  | 0.0874 | 0.164 | 0.0638 | 0.0672 | 0.118 | 0.136 |  | 0.0844 |  | 

— the supplement of paper PMC12217912
